Experimental data as given in PubChem BioAssay AID504466 (National Center for Advancing Translational Sciences (NCATS), 2011).
About 4,200 (1.3%) of roughly 330,000 compounds were called active. Inconclusive means that the source gave no clear call. Such entries were picked first, then a sample of the others. Calls come from the whole dose curve; as a rule, active = well fitted activation curve with a large enough effect; inconclusive = small, poorly fitted or top-dose-only effect; inactive = no such curve, though single readings can be large or run the other way. Potencies of inconclusive entries are doubtful fits and often do not repeat.

experiment: qHTS screen for small molecules that induce genotoxicity in human embryonic kidney (HEK293T) cells expressing luciferase-tagged ELG1; settings: HEK293T ELG1-luciferase reporter, luminescence, 16 h; series mostly up to 46 µM; activity change, positive = activation: at the top concentration; note: nearly all actives have a fitted effect of over 60% in size; for activity change, positive = activation: % of control where 0% means no effect
Summary of the method: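 DMSO vehicle served as control against compound-treated ELG1-luciferase HEK293T cells; exposure lasted 16 hr at 37 °C and 5% CO2, followed by ONE-Glo luminescence detection after 30 min.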
Potency is the fitted concentration of half-maximal effect; tags give direction and shape of the fitted curve.

Structure (SMILES)	Potency	activity change, positive = activation
Nc1nc(-c2ccccc2)cc(-c2ccccc2)n1	inconclusive: 23.1 µM [activator, single point]	–
CCCNC(=S)N1CCC(C(=O)c2ccc(F)cc2)CC1	–	inactive: -4.25%
O=[N+]([O-])c1ccc2nc(-c3ccncc3)[nH]c2c1	inconclusive: 23.1 µM [activator, partial curve, poor fit]	–
Brc1ccc(-c2nnc(-c3ccco3)o2)cc1	inconclusive: 6.51 µM [activator, partial curve]	–
O=C(NNC(=S)Nc1ccccc1)c1ccc(O)cc1	inconclusive: 10.3 µM [activator, partial curve]	–
O=C(NCC1CCCCC1)c1cccc(-c2ccc(O)cc2)c1	–	inactive: -6.96%
Cc1noc(C)c1S(=O)(=O)NCc1cccc(Cl)c1	–	inactive: -3.9%
O=C(NNC(=O)c1cc2cc3ccccc3nc2s1)c1ccc(F)cc1	inconclusive: 16.4 µM [activator, partial curve, poor fit]	–
CC(=O)c1cccc(NCC(=O)Nc2cccc(S(=O)(=O)N3CCCCC3)c2)c1	inconclusive: 29.1 µM [activator, single point]	–
COc1ccc(C(CCN2CCCCC2)c2c(OC)cc(OC)c3c(-c4ccccc4)cc(=O)oc23)cc1 (stereo not drawn)	inconclusive: 23.1 µM [activator, partial curve, poor fit]	–
Cc1cccc(CNC(=O)CCc2nnc(C3CCCCC3)o2)c1	–	inactive: 2.77%
COc1ccc(S(=O)(=O)Nc2ccc(F)c(F)c2)cc1C(=O)N1CCOCC1	–	inactive: 0%
Cn1nc(/C=C/c2ccccc2)ccc1=O	inconclusive: 17.8 µM [activator, single point]	–
Cc1cccnc1NC(=O)c1ccc(Cl)c(S(=O)(=O)N2CCCCCC2)c1	–	inactive: -8.63%
CCCOc1ccc(C(=O)NC2CCSc3ccccc32)cc1 (stereo not drawn)	–	inactive: 2.94%
CN(C)c1ccc(C=Nc2ccc(N(C)C)cc2)cc1	inconclusive: 5.8 µM [activator, full curve]	–
Cc1ccc(F)cc1NC(=O)c1ccc(OCC2CCCO2)cc1 (stereo not drawn)	–	inactive: 12.1%
Cc1cc(C(=O)COC(=O)c2ccc(O)cc2)c(C)n1CC1CCCO1 (stereo not drawn)	inconclusive: 3.26 µM [activator, partial curve]	–
Cc1noc(N)c1C(=O)Nc1ccc(C(C)(C)C)cc1	inconclusive: 11.6 µM [activator, partial curve]	–
CCc1sc(C(=O)Nc2ncccc2O)cc1C	inconclusive: 18.3 µM [activator, partial curve, poor fit]	–
CCOC(=O)CNc1c(-c2ccc(OC)cc2)nc2ccc(Cl)cn12	inconclusive: 29.1 µM [activator, single point]	–
CN(C)c1ccc(NC(=O)c2cnsn2)cc1	inconclusive: 2.59 µM [activator, partial curve]	–
CC(C)Cn1c(/C=C/c2ccco2)nc2ccccc21	–	inactive: 1.81%
CCc1nnc(NC(=O)c2ccc3ccccc3n2)s1	–	inactive: -15.2%
CCOc1cccc(C(=O)N(Cc2cccc(F)c2)C2CCS(=O)(=O)C2)c1 (stereo not drawn)	–	inactive: -2.06%
N#Cc1ccccc1OCc1nnc(-c2ccccc2Br)o1	inconclusive: 2.91 µM [activator, partial curve, poor fit]	–

Structure (SMILES)	Potency	activity change, positive = activation
CN(C)c1ccc(/C=N/NC(=O)c2ccco2)cc1	active: 4.11 µM	–
Cc1cccc(C)c1NC(=O)c1cnn(-c2ccccc2)c1C	–	inactive: -5.06%
CCn1c(COc2cccc(C)c2C)nnc1SCC(=O)Nc1cc(C)on1	–	inactive: 4.05%
O=c1c(Br)c(Br)cnn1-c1ccccc1	–	inactive: -19.4%
C/C(=N\Nc1cccc2cccnc12)c1ccccc1O	inconclusive: 2.31 µM [activator, full curve]	–
COc1ccc(C(=O)CSc2nnc3ccccn23)cc1OC	inconclusive: 14.6 µM [activator, partial curve, poor fit]	–
Cc1ccc(C(=O)Nc2nnc(S(=O)(=O)N3CCCCCC3)s2)cc1	–	inactive: 15.5%
CC(=O)NC1Sc2ccccc2N=C1c1ccccc1 (stereo not drawn)	active: 13 µM	–
CCOC(=O)C(C)N1C(=O)S/C(=C/c2cc(C)n(-c3ccccn3)c2C)C1=O (stereo not drawn)	inconclusive: 2.82 µM [activator, partial curve, poor fit]	–
COc1cccc(OCc2ccc(Cl)cc2)c1C#N	inconclusive: 0.92 µM [activator, partial curve]	–
Cc1ccc(NC(=O)CSc2ccc(-c3ccc4c(c3)OCO4)nn2)cc1F	inconclusive: 11.6 µM [activator, partial curve, poor fit]	–
COc1ccc(C(=O)c2ccc(OC)c(N)c2)cc1N	active: 18.4 µM	–
O=C(N/C=C/c1ccccc1)Nc1ccc(Cl)cc1	inconclusive: 6.51 µM [activator, full curve, poor fit]	–
CCCn1nnnc1SCC(=O)c1ccc2c(c1)OCCO2	inconclusive: 15.8 µM [activator, single point]	–
O=C(NCc1ccc(Cl)cc1)c1ccc2nc[nH]c2c1	–	inactive: 0.58%
Cc1ccc(NC(=O)OCc2cccs2)cc1	active: 2.91 µM	–
COc1ccc(CCNC(=O)c2cc(-c3ccco3)on2)cc1OC	–	inactive: 20.6%
CC(=O)N1CC=CC1(C)C(=O)NCc1cc(F)cc(C(F)(F)F)c1 (stereo not drawn)	–	inactive: 0.672%
Cc1ccc(NCCC(=O)c2ccccc2)cc1Cl	inconclusive: 18.3 µM [activator, partial curve, poor fit]	–
c1ccc(-n2ncc3c(NCc4cccs4)ncnc32)cc1	active: 10.3 µM	–
Cc1c(C(=O)OCC(=O)N(C)CC(=O)Nc2ccc(F)cc2)oc2ccccc12	–	inactive: -3.79%
Brc1ccccc1C1CC(c2ccccc2)=Nc2ccccc2N1 (stereo not drawn)	inconclusive: 25.9 µM [activator, partial curve, poor fit]	–
COc1cc(OC)c2cc(C(=O)N/N=C/c3ccccc3O)[nH]c2c1	inconclusive: 29.1 µM [activator, single point]	–
Cc1cccc(NC(=O)Cc2c(F)cccc2Cl)n1	inconclusive: 23.1 µM [activator, partial curve, poor fit]	–
C=CCn1c(=S)[nH]c2sc3c(c2c1=O)CCCC3	–	inactive: -5.6%
COc1ccc2nc3oc(C(=O)N4CC(C)CC(C)C4)cc3cc2c1 (stereo not drawn)	–	inactive: 2.76%

Structure (SMILES)	Potency	activity change, positive = activation
Fc1ccc(-c2cnc(-c3cccs3)o2)cc1	inconclusive: 20.6 µM [activator, single point]	–
COc1ccc(-n2nc3cc(C)c(N)c(Br)c3n2)cc1	active: 7.31 µM	–
Cc1ccc(-c2nc3ccccc3o2)cc1NC(=S)NC(=O)c1cccs1	–	inactive: 17.5%
CCN(CC)c1cc(C)c2cc(NC(=O)c3cccs3)ccc2n1	–	inactive: -10.1%
Cc1c(-c2ccccc2)[nH]n2c(=O)c3c(nc12)CCCC3	inconclusive: 20.6 µM [activator, single point]	–
Nc1ccc(C(=O)N/N=C/c2c[nH]c3ccccc23)cc1	–	inactive: 6.23%
Cc1cccc(CNC(=O)c2ccc3nc(Cc4ccccc4F)oc3c2)n1	inconclusive: 13 µM [activator, partial curve]	–
CCOC(=O)Cc1csc(NC(=O)c2ccc(C)o2)n1	inconclusive: 16.4 µM [activator, partial curve, poor fit]	–
C=CCOc1ccccc1CNc1ccc2c(c1)OCCO2	inconclusive: 0.366 µM [activator, partial curve]	–
CC(C)OC(=O)CSc1nnc2c3ccccc3n(C)c2n1	inconclusive: 18.3 µM [activator, single point]	–
CN(C)c1ccc(NC(=O)c2ccc3nc[nH]c3c2)cc1	inconclusive: 23.1 µM [activator, partial curve, poor fit]	–
CCOC(=O)c1c(NC(=O)CSc2ncnc3ccccc23)sc(C)c1C	–	inactive: 4.48%
Cc1cc(C)n(CCNC(=O)CC2C(=O)NCCN2Cc2ccccc2C(F)(F)F)n1 (stereo not drawn)	–	inactive: -1.27%
O=C(Nc1cc(F)c(Br)cc1F)c1ccc(Cl)cc1	inconclusive: 9.2 µM [activator, partial curve]	–
O=C(Cn1cnc2cc([N+](=O)[O-])ccc2c1=O)Nc1ccccc1-c1ccccc1	–	inactive: -4.14%
Clc1cc2nc3ccccn3c2cc1Cl	inconclusive: 18.4 µM [activator, partial curve, poor fit]	–
COC(=O)c1ccc(CN2CCC(Oc3cccc(C(=O)N4CCOCC4)c3)CC2)cc1	–	inactive: 2.44%
COc1ccc(CCC(=O)Nc2nc3ccccc3[nH]2)cc1	inconclusive: 3.26 µM [activator, full curve]	–
Cc1ccc(NC(=O)CN(C)CC(=O)N(C)Cc2ccccc2)cc1	–	inactive: 2.52%
CCc1cc(C(=O)NCC2CCCO2)sc1C (stereo not drawn)	inconclusive: 14.6 µM [activator, single point]	–
COc1ccc(-c2csc(-n3ncc(C(=O)O)c3C(F)(F)F)n2)cc1	inconclusive: 18.3 µM [activator, partial curve, poor fit]	–
O=C(/C=C/c1cccs1)N1CCc2ccccc21	active: 1.84 µM	–
COC(=O)[C@]1(Cc2ccccc2)N[C@H](CN(C)S(=O)(=O)c2ccc(C(C)(C)C)cc2)[C@@H]2C(=O)N(Cc3ccccc3)C(=O)[C@@H]21	–	inactive: 0.637%
N#C/C(=C\c1ccc(-c2ccccc2)cc1)c1nc(-c2ccco2)cs1	inconclusive: 18.4 µM [activator, single point]	–
O=C(Nc1nnc(C2CC2)s1)c1ccco1	inconclusive: 18.3 µM [activator, partial curve, poor fit]	–
CCN(CC)S(=O)(=O)c1ccc2nc(COC(=O)c3n[nH]c4ccccc34)[nH]c2c1	inconclusive: 32.6 µM [activator, partial curve, poor fit]	–
